# Experimental data as given in CN114395035A.
# B1: IMCAS-72抗体 (全抗IgG1) (antibody)
# heavy: DQVQLVESGGGLVQPGGSLRLSCAASGFTFSSYGMHWVRQAPGKGLEWVAVISYDGSDKYYADSVKGRFTISRDNSKNTLYLQMNSLRAEDTAVYYCARDRDRFGDQGGWFDPWGQGTLVTVSS[sequence of human IgG1 constant region omitted]
# light: [sequence of about 100 residues omitted][sequence of about 100 residues omitted]
# Target: SARS-CoV-2 Alpha variant RBD蛋白 (SARS-CoV-2)
# Experiment: SPR (Biacore 8K)
# Details: remark: other sources report otherwise
binder,measurement,value
B1,Kd,6.37 nM
